PubChem BioAssay AID493208 (National Center for Advancing Translational Sciences (NCATS), 2011)
Hit rate of the full screen: of about 44,000 compounds, about 340 (0.77%) were called active. Roughly 5% stayed inconclusive and do not appear here. The call rests on the fitted dose curve; in most records, active means well fitted inhibition curve with a large enough effect; inconclusive means small, poorly fitted or top-dose-only effect; inactive means flat fitted curve, though single readings scatter. The list shows a part of the results.

test: Acumen qHTS Assay for Inhibitors of the mTORC1 Signaling Pathway in MEF (Tsc2-/-, p53-/-) Cells: Sytravon; settings: phospho-rpS6 immunofluorescence/PI, 24 h; series mostly up to 38.3 µM; activity change, negative = inhibition: at the top concentration;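 further: plate controls were DMSO for no effect and rapamycin for full effect; nearly all actives have a fitted effect of over 50% in size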
In short: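 Tsc2-/-, p53-/- mouse embryonic fibroblasts (empty-vector line) exposed to compound 24 hrs at 37 C, fixed, immunostained for phospho-rpS6 and counterstained with propidium iodide. Acumen laser scanning gives % positive cells from Alexa 488/PI ratio, thresholded using 7.5 nM rapamycin; PI count gives viability.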

Activity change, negative = inhibition, inactive:
COc1ccc(OC)c(NC(=O)CN(C)S(=O)(=O)c2ccc(C(=O)N3CCOCC3)s2)c1 0%
COc1ccccc1NC(=O)Cn1c(=O)n(Cc2ccccc2)c(=O)c2sc3ccccc3c21 2.93%
Cc1ccc(-c2nnc(Nc3cccc(Cl)c3)c3ccccc23)cc1S(=O)(=O)N1CCOCC1 6.97%
COc1ccc(C)cc1NC(=O)N(Cc1ccc(C)o1)C1CCN(C(C)=O)CC1 -8.58%
Cc1cc(C)c(NC(=O)CSc2nc3ccccc3nc2N2CCCCC2)c(C)c1 -10.2%
O=C(NCc1cccc(Cl)c1)c1cc2ccc3cccnc3c2[nH]1 -4.6%
CC(C)COc1ccc(C(=O)Nc2ccc(S(=O)(=O)Nc3ncccn3)cc2)cc1 -14%
CCC(C(=O)Nc1cccc(Cl)c1C)n1nc(-c2ccc(C)cc2)ccc1=O (stereo unspecified) -12%
CCCc1nc2sc3c(N4CCC(C)CC4)ncnc3c2c2c1CCCC2 -2.66%
CC(C)COc1cccc(C(=O)Nc2ccc(-c3nc4ncccc4o3)cc2)c1 2.82%
CC1CCN(C(=O)Cn2cc(SCC(=O)NCc3ccccc3Cl)c3ccccc32)CC1 -14.9%
CCC(=O)Nc1cc(C)c(O)c(-c2nc3ncccc3o2)c1 -1.34%
Cc1cccc(N2CCN(S(=O)(=O)c3ccc4c(c3)CCCN4C(=O)C3CCC3)CC2C)c1 (stereo unspecified) 0.128%
Cc1ccc(Cl)cc1NC(=O)C(C)n1nnc2sc3c(c2c1=O)CCCC3 (stereo unspecified) 4.52%
Cn1c(=O)n(-c2ccc(Br)cc2F)c(=O)c2sc3ccccc3c21 0.425%
COc1ccc(Cn2c(=O)[nH]c3cc(C(=O)N4CCN(c5cccc(Cl)c5)CC4)ccc3c2=O)cc1 9.08%
CCCN1C(C(=O)c2ccccc2)=C(OC(=O)COc2ccccc2)c2ccccc2S1(=O)=O -12%
O=C(NC1CCCCCC1)c1ccc2c(c1)sc1nc(-c3ccc(F)cc3)cn12 -15.9%
CCOc1ccc(NC(=O)CN2C(=O)C(c3ccccc3)=NC23CCC(C)CC3)cc1 (stereo unspecified) -2.29%
CCOC(=O)c1ccc(CN(Cc2ccc(F)cc2)S(=O)(=O)c2cc(C(=O)Nc3cccc(C(F)(F)F)c3)ccc2F)cc1 12.7%
COc1cc2c(=O)c(S(=O)(=O)c3ccc(F)cc3)cn(Cc3ccc(Cl)cc3)c2cc1OC -11.8%
O=C(Nc1ccc(C(=O)OCc2cc(=O)n3c4c(sc3n2)CCCC4)cc1)c1ccccc1 4.9%
CC(=O)c1ccc(NC(=O)c2noc3c2CCc2ccccc2-3)cc1 8.16%
COc1ccc(C2C(C(N)=O)=C(C)Nc3nc(CCCO)nn32)c(OC)c1 (stereo unspecified) -4.07%
COc1ccc(CCNC(=O)c2cnc3ccc(C)cn3c2=O)cc1 -6.75%
CCCS(=O)(=O)c1c(S(=O)(=O)CCC)c2cc(CC)ccn2c1C(=O)c1ccc(OC)cc1 -0.967%
COc1cccc(Cn2nnc(C(=O)Nc3cc(C)ccc3C)c2N)c1 -8.22%
CCOc1ccc(NC(=O)N2CCC(C(N)=O)(N3CCCCC3)CC2)cc1 -0.014%
CCOc1ccccc1CNC(=O)Cn1c(-c2ccccc2)cc(C(C)=O)c1C 0.396%
O=C(CCc1nc(-c2cccs2)no1)Nc1ccccc1[N+](=O)[O-] 0.0282%
O=C(Cn1c(=O)n(Cc2ccccc2)c(=O)c2sc3ccccc3c21)NCc1ccccc1Cl -11.7%
O=C(NC1CC(=O)N(c2cccc(F)c2)C1)c1ccc(S(=O)(=O)N2CCCC2)cc1 (stereo unspecified) -11.7%
Cc1ccn2c(=O)c(C(=O)NCCc3ccccc3)c(O)nc2c1 -5.89%
Cc1ccc2nc(NC(=O)CSc3nccn3Cc3ccc(Cl)cc3)sc2c1 1.81%
O=C(Nc1cccc(Cl)c1)N1CCSc2ccccc21 0.428%
CSc1ccc(CCNC(=O)c2cnn(-c3ccccc3)c2-n2cccc2)cc1 -1.29%
Cc1cccc(NC(=O)c2cc(S(=O)(=O)N3CCc4ccccc43)ccc2F)c1C 5.24%
COCCCNC(=O)CS(=O)Cc1nc(-c2cccc(C)c2)oc1C (stereo unspecified) 0.863%
COc1ccc(OC)c(-c2cc(C(=O)NCCc3ccccc3)c3c(-c4ccc(C)cc4)[nH]nc3n2)c1 -3.91%
CCOC(=O)c1cnc2c(ccc3ccccc32)c1Nc1ccccc1OCC 3.82%
CC(NC(=O)CCCC1=NS(=O)(=O)c2ccccc2N1)c1ccccc1 (stereo unspecified) 0.596%
CCOc1ccccc1NC(=O)c1c(NC(=O)COc2ccccc2)sc2c1CCCCC2 -3.98%
CCCn1cc(S(=O)(=O)c2ccccc2)c(=O)c2cc(F)c(N3CCCCC3)cc21 -0.086%
Cc1ccc(N2C(=O)CSC23C(=O)N(CC(=O)NCCc2ccccc2)c2ccccc23)cc1C (stereo unspecified) 3.05%
Cc1ccc(NC(=O)C2CCN(c3nc4ccccc4nc3C(F)(F)F)CC2)cc1F 4.54%
COc1ccc(C(=O)Nc2nnc(S(=O)(=O)N3CCCCCC3)s2)cc1OC 3.86%
CCOC(=O)c1cc(-c2ccccc2)n(-c2cccc(C(=O)Nc3cccc(F)c3)c2)c1C -0.0302%
Cc1ccc(CNC(=O)CCc2c(C)nc3c(c(C)nn3-c3ccccc3)c2C)cc1 -3.77%
COc1ccc(C(=O)c2oc3ccccc3c2NC(=O)COc2ccccc2)cc1 -1.16%
COc1ccc(CCNC(=O)c2sc3nc4n(c(=O)c3c2C)CCCC4)cc1OC -3.86%
CCc1cccc(C)c1NC(=O)CC1Oc2ccc(C)cc2NC1=O (stereo unspecified) 0.684%
CC(C)n1c(=N)c(C(=O)NCc2cccnc2)cc2c(=O)n3ccccc3nc21 -2.59%
O=C(COc1ccc(Cl)cc1)OCc1cc(=O)n2nc(-c3cccs3)sc2n1 1.63%
O=C(Cn1c(=O)n(Cc2ccco2)c(=O)c2ccc(C(=O)NC3CCCC3)cc21)Nc1ccc(F)cc1 -0.116%
COc1ccc(-n2nc(C(=O)NCCc3ccc(Cl)cc3)c3c4ccccc4n(C)c3c2=O)cc1Cl -1.79%
Cc1cc(C)n(CC(=O)Nc2ccc(F)c(F)c2)c(=O)c1C#N 17.7%
N#C/C(=C\c1ccc(-c2ccccc2C(=O)O)o1)c1nc2ccccc2[nH]1 11.8%
O=C(Cn1nc2c(cc1=O)CCCC2)Nc1ccc(F)cc1F -0.676%
COc1ccc(CCNC(=O)c2c(O)nc3cc(C)ccn3c2=O)cc1OC 0.293%
Cc1cc(-c2ccc(C)c(S(=O)(=O)N3CCCC(C)C3)c2)on1 (stereo unspecified) 4.16%
CCc1ccc(CNC(=O)c2ccc(CSc3nc4ccncc4n3Cc3ccc(OC)cc3)cc2)cc1 0.566%
COc1ccc(N2CCN(C(=O)Cc3coc4ccc(C)cc34)CC2)cc1 -10%
O=S(=O)(Nc1cccc(Cl)c1)c1ccc2[nH]c3c(c2c1)CCCCCC3 -17.9%
CC(C)Oc1cccc(NC(=O)C2CCN(S(=O)(=O)Cc3ccccc3)CC2)c1 4.26%
COc1ccc(C)cc1NC(=O)C(=O)NCCc1sc(-c2ccc(Cl)cc2)nc1C -1.86%
CCOC(=O)c1c(NC(C)=O)c2c3c(sc2n1Cc1nc(-c2ccc(Cl)cc2)oc1C)CCCC3 3.5%
CCc1noc(-c2ccc(NC(C)c3ccccc3)c([N+](=O)[O-])c2)n1 (stereo unspecified) -18.4%
CCN(CC)C(=O)C1=C(C)Nc2nc3ccccc3n2C1c1ccc(Br)cc1 (stereo unspecified) 2.02%
CC(=O)c1cccc(NC(=O)CCS(=O)(=O)c2cc3c(cc2C)NC(=O)CO3)c1 4.67%
CCOC(=O)c1c(S(=O)(=O)N2CCC(C(=O)N3CCN(c4cccc(C)c4C)CC3)CC2)c(C)n(C)c1C -0.26%
CCC(CC)C(=O)Nc1cc(-c2cn3cccnc3n2)ccc1OC -1.37%
CCOc1ccccc1C1N=C(N)Nc2nc3ccccc3n21 (stereo unspecified) -9.41%
Cc1nc(N2CCCC2)c2c(C(=O)Nc3ccc(C)c(Cl)c3)c(C)oc2n1 3.39%
Cc1ccccc1-c1nnc(CN2CCN(c3cc(Cl)ccc3C)CC2)o1 1.23%
O=C(CSc1nnc(COc2ccc(Cl)cc2)o1)Nc1ccccc1 -5.23%
CCOc1ccc(C(=O)Nc2c(C(=O)c3ccccc3)oc3ccccc23)cc1 3.54%
COc1ccc(C(CC(=O)Nc2ccc(C)cn2)N2Cc3ccccc3C2=O)cc1OC (stereo unspecified) -9.09%
CCOC(=O)N1CCC(NC(=O)c2ccc3c(c2)N(Cc2cccc(C)c2)C(=O)c2ccccc2S3(=O)=O)CC1 -10.7%
COc1cccc(CNC(=O)c2nnn(CC(=O)Nc3cc(Cl)ccc3C)c2N)c1 -1.87%
O=S(=O)(c1ccc(F)cc1)N1CCC(Oc2ccc(-n3cnnn3)cc2)CC1 0.841%
Cc1cccc(N2C(=O)C(CC(=O)Nc3cccc(F)c3)N(Cc3cccs3)C2=O)c1 (stereo unspecified) 0%
CCC(=O)N1CCc2cc(Br)cc(S(=O)(=O)CCC(=O)Nc3cccc(CC)c3)c21 2.55%
Cc1ccc(-c2ccc(=O)n(Cc3ccc(F)cc3)n2)cc1 1.66%
COc1cccc(CNC(=O)Cn2c(=O)oc3cc(S(=O)(=O)N4CCCC4)ccc32)c1 -0.766%
Cc1ccc(CN2CCSc3ccc(C(=O)Nc4ccc(Cl)cc4)cc32)cc1 -19.1%
CCCN(CCC)CCCNC(=O)c1cc2c(=O)oc3ccc(C)cc3c2s1 -14.3%
CC(NC(=O)C1(c2cccs2)CCOCC1)c1ccccc1 (stereo unspecified) -0.0434%
CCn1cc(C(=O)N2CCN(c3cc(Cl)ccc3C)CC2)c2cc(OC)c(OC)cc2c1=O -17.4%
CCOc1ccc(CCNC(=O)CCCc2cc(-c3ccc(OCC)cc3)on2)cc1 -0.787%
Cc1nc2cccnc2n1C1CCN(S(=O)(=O)c2ccc(Cl)cc2)CC1 9.92%
O=C(Cc1csc2ccccc12)NCc1cccc(Br)c1 2.17%
Cc1ccccc1CN1CCC(CNc2ncnc3onc(-c4ccc(Cl)cc4)c23)CC1 -0.814%
CN(C)S(=O)(=O)n1cc(/C=C(\NC(=O)c2ccccc2F)C(=O)NCCCn2ccnc2)c2ccccc21 -7.93%
Cc1ccc(NC(=O)C2CCCN(c3ncnc4c3nc3n4CCCCC3)C2)cc1F (stereo unspecified) 0.931%
CCOc1ccc(NC(=O)c2c(NC(=O)c3ccco3)sc3c2CCC(C(C)(C)C)C3)cc1 (stereo unspecified) -11%
O=C(O)CC(NS(=O)(=O)c1ccc(Cl)s1)c1ccccc1 (stereo unspecified) 6.46%
